Some of these densities may be calculated back from excess volumes.
Test: xn = mol fraction of the nth substance listed
Conditions: 100 kPa

O=C1CCCO1 + C[n+]1ccn(CCCC#N)c1.O=S(=O)([O-])C(F)(F)F
x2 = 0
Conditions	mass density [kg/m3]
293.15 K	1128.7
298.15 K	1123.9
308.15 K	1114
313.15 K	1109.2
318.15 K	1104.5
328.15 K	1094.8
333.15 K	1090
338.15 K	1085.2
343.15 K	1080.6

C[n+]1ccn(CCCC#N)c1.O=S(=O)([O-])C(F)(F)F + O=C1CCCO1
mass density [kg/m3]
Conditions	x1 = 0.1003	x1 = 0.2001	x1 = 0.3003	x1 = 0.3999	x1 = 0.4999	x1 = 0.6002	x1 = 0.7001	x1 = 0.8002	x1 = 0.9004	x1 = 1
288.15 K	1216	1274.7	–	1352.9	1379.8	–	1416.7	1429.9	1440.7	–
293.15 K	1211.8	1270.7	1315.3	1349	1375.6	1396.6	1412.9	1426.2	–	1445
298.15 K	1207.8	1266.9	1311.4	1344.9	1371.9	1392.7	1409.2	1422.4	–	1440.9
303.15 K	1203.8	1263	1307.6	1341.2	–	1388.9	1405.6	–	–	1436.7
308.15 K	1199.5	1259	1303.6	1337.3	1364.3	–	1401.8	1415.1	1425.6	–
313.15 K	1195.5	1255.3	–	1333.6	1360.5	–	–	1411.4	1421.8	1428.4
318.15 K	1191.3	1251.4	1296	1329.6	1356.7	1377.7	1394.5	–	–	–
323.15 K	1187.2	1247.3	–	1325.7	1352.9	1374	1390.7	–	–	–
328.15 K	1183	1243.4	1288.1	1321.9	1349	1370.2	1387.1	1400.5	1410.4	1415.9
333.15 K	1178.9	1239.5	1284.1	–	1345.2	1366.5	1383.4	1396.8	1406.6	1411.7
338.15 K	1174.7	1235.5	–	1314.3	1341.5	1362.8	1379.7	1393.1	1402.8	–
343.15 K	1171	1232	1276.4	1310.5	1337.8	1359.1	–	1389.6	1399	1403.4

Reference: a compilation of properties of binary mixtures (doi:10.1016/j.molliq.2022.120052)
